This continues a long series; more values of the same kind are listed elsewhere.
Assay: Tissue distribution by quantitative whole-body autoradiography (QWBA)
Assay type: in vivo, male Sprague Dawley and Long-Evans rats
Conditions: 15 mg/kg IV
Protocol: The study utilized 4 groups of male SD rats (albino), and 3 groups of male LE rats (pigmented); a total of 39 rats. All animals were obtained from Hilltop Lab Animals, Inc. (Scottdale, Pa.). […] Rats in Group 5 were administered a single 2-h IV infusion of [^14C]brincidofovir at a target dose of 2 mg/kg. […] Three dosing formulations (one for high dose IV, one for low dose IV, and one for PO dose) were prepared at QPS on the day of dosing. The IV formulation for Groups 1, 2, 3, and 4 contained a vehicle of 10 mM sodium phosphate buffer in 5% dextrose solution at pH 8.0(±0.1).
Each animal, at their respective termination time points, was euthanized for QWBA analysis immediately after blood collection. One rat per time point per Group was euthanized as listed below.
The blood samples were maintained on wet ice (approximately 4° C.) and then centrifuged to obtain plasma within 1 h of the blood collection time. Centrifuge settings were recorded in the study notebook. Duplicate aliquots of plasma (0.050 mL) were analyzed for radioactivity using direct counting by LSC, and residual plasma was stored at approximately −70° C. and was saved for possible future analysis under a separate study protocol. Residual red blood cells were discarded as radioactive waste.
The pinna, distal limbs, hair, and tail were removed from each frozen carcass and each frozen carcass was embedded in an aqueous suspension of approximately 2% (w/v) carboxymethylcellulose and frozen into a block. The blocks were stored at approximately −20° C. prior to sectioning. Each blocked carcass was mounted on the object stage of a cryomicrotome (Leica CM3600 Cryomacrocut, Nussloch, Germany and Vibratome 9800, St. Louis, Mo.) maintained at approximately −20° C. and internal standards (3), which were plasma fortified with [^14C]-glucose at one concentration (approximately 0.05 μCi/mL), were placed into the frozen blocks, prior to sectioning, and were used for section thickness quality control. A number of whole-body sections (approximately 40 μm thick) were taken in the sagittal plane at various levels of interest using a whole-body cryomicrotome set at −20° C. Sagittal sections (20-50 μm thick) of frozen carcasses were exposed to phosphor imaging plates. Regions of images in tissues were converted to concentrations using standards. All of the major tissues, organs, and biological fluids were represented.
Tissue concentration data was determined for the following tissues and/or contents: adipose (brown and white), adrenal gland, bile (in duct), blood (cardiac), bone, bone marrow, brain (cerebrum, cerebellum, medulla), cecum (and contents), large intestine (and contents), epididymis, esophagus, eye (uvea and lens), Harderian gland, heart, kidney (cortex and medulla), liver, lung, lymph node, pancreas, pituitary gland, prostate gland, salivary gland, seminal vesicles, skeletal muscle, skin (pigmented and non-pigmented), small intestine (and contents), stomach (gastric mucosa and contents), spleen, spinal cord, testis, thymus, thyroid, and urinary bladder (and contents).
The imaging plate and sections were placed in light-tight exposure cassettes, in a copper-lined lead safe, for a 4-day exposure at room temperature. […] Quantification was performed by image densitometry using MCD image analysis software (v. 7.0, Interfocus Imaging Ltd) and a standard curve constructed from the integrated response [i.e., Molecular Dynamics Counts per square millimeter (MDC/mm^2)] and the nominal concentrations of the ^14C-calibration standards. The concentrations of radioactivity were expressed as the μg equivalents of [^14C]brincidofovir per gram sample (μg equiv/g). A lower limit of quantification (LLOQ) was applied to the data (See section 6.7.4).
Tissue concentrations that fell below the LLOQ were identified as being below the quantification limit (BQL). Tissue areas that were not visualized on autoradiographic images were identified as no sample (NS) and reported as BQL.

Compound: CCCCCCCCCCCCCCCCOCCCOP(=O)(O)CO[C@H](CO)Cn1ccc(N)nc1=O [[^14C]brincidofovir]
- Concentration of radioactivity (Liver, 24 h, LE rat): 13.918 μg equiv/g tissue
- Concentration of radioactivity (Liver, 72 h, LE rat): 3.261 μg equiv/g tissue
- Concentration of radioactivity (Liver, 96 h, LE rat): 1.269 μg equiv/g tissue
- Concentration of radioactivity (Liver, 168 h, LE rat): 0.451 μg equiv/g tissue
- Concentration of radioactivity (Liver, 840 h, LE rat): BQL (BQL = Value is below the LLOQ)
- Concentration of radioactivity (Lung, 1 h, LE rat): 3.063 μg equiv/g tissue
- Concentration of radioactivity (Lung, 2 h, LE rat): 6.350 μg equiv/g tissue
- Concentration of radioactivity (Lung, 4 h, LE rat): 3.690 μg equiv/g tissue
- Concentration of radioactivity (Lung, 8 h, LE rat): 2.233 μg equiv/g tissue
- Concentration of radioactivity (Lung, 24 h, LE rat): 0.585 μg equiv/g tissue
- Concentration of radioactivity (Lung, 72 h, LE rat): 0.886 μg equiv/g tissue
- Concentration of radioactivity (Lung, 96 h, LE rat): 0.362 μg equiv/g tissue
- Concentration of radioactivity (Lung, 168 h, LE rat): 0.178 μg equiv/g tissue
- Concentration of radioactivity (Lung, 840 h, LE rat): BQL (BQL = Value is below the LLOQ)
- Concentration of radioactivity (Lymph Node, 1 h, LE rat): 1.682 μg equiv/g tissue
- Concentration of radioactivity (Lymph Node, 2 h, LE rat): 4.002 μg equiv/g tissue
- Concentration of radioactivity (Lymph Node, 4 h, LE rat): 2.244 μg equiv/g tissue
- Concentration of radioactivity (Lymph Node, 8 h, LE rat): 1.936 μg equiv/g tissue
- Concentration of radioactivity (Lymph Node, 24 h, LE rat): 0.745 μg equiv/g tissue
- Concentration of radioactivity (Lymph Node, 72 h, LE rat): 0.710 μg equiv/g tissue
- Concentration of radioactivity (Lymph Node, 96 h, LE rat): 0.270 μg equiv/g tissue
- Concentration of radioactivity (Lymph Node, 168 h, LE rat): 0.247 μg equiv/g tissue
- Concentration of radioactivity (Lymph Node, 840 h, LE rat): 0.062 μg equiv/g tissue
- Concentration of radioactivity (Pancreas, 1 h, LE rat): 0.864 μg equiv/g tissue
- Concentration of radioactivity (Pancreas, 2 h, LE rat): 1.896 μg equiv/g tissue
- Concentration of radioactivity (Pancreas, 4 h, LE rat): 1.051 μg equiv/g tissue
- Concentration of radioactivity (Pancreas, 8 h, LE rat): 0.834 μg equiv/g tissue
- Concentration of radioactivity (Pancreas, 24 h, LE rat): 0.315 μg equiv/g tissue
- Concentration of radioactivity (Pancreas, 72 h, LE rat): 0.194 μg equiv/g tissue
- Concentration of radioactivity (Pancreas, 96 h, LE rat): 0.082 μg equiv/g tissue
- Concentration of radioactivity (Pancreas, 168 h, LE rat): BQL (BQL = Value is below the LLOQ)
- Concentration of radioactivity (Pancreas, 840 h, LE rat): BQL (BQL = Value is below the LLOQ)
- Concentration of radioactivity (Pituitary Gland, 1 h, LE rat): 2.397 μg equiv/g tissue
- Concentration of radioactivity (Pituitary Gland, 2 h, LE rat): 6.343 μg equiv/g tissue
- Concentration of radioactivity (Pituitary Gland, 4 h, LE rat): 4.081 μg equiv/g tissue
- Concentration of radioactivity (Pituitary Gland, 8 h, LE rat): 1.089 μg equiv/g tissue
- Concentration of radioactivity (Pituitary Gland, 24 h, LE rat): 0.431 μg equiv/g tissue
- Concentration of radioactivity (Pituitary Gland, 72 h, LE rat): 0.603 μg equiv/g tissue
- Concentration of radioactivity (Pituitary Gland, 96 h, LE rat): 0.297 μg equiv/g tissue
- Concentration of radioactivity (Pituitary Gland, 168 h, LE rat): 0.189 μg equiv/g tissue
- Concentration of radioactivity (Pituitary Gland, 840 h, LE rat): BQL (BQL = Value is below the LLOQ)
- Concentration of radioactivity (Plasma (by LSC), 1 h, LE rat): 2.754 μg equiv/g tissue
- Concentration of radioactivity (Plasma (by LSC), 2 h, LE rat): 4.918 μg equiv/g tissue
- Concentration of radioactivity (Plasma (by LSC), 2 h, SD rat): 7.130 μg equiv./g
- Concentration of radioactivity (Plasma (by LSC), 4 h, LE rat): 3.080 μg equiv/g tissue
- Concentration of radioactivity (Plasma (by LSC), 8 h, LE rat): 1.207 μg equiv/g tissue
- Concentration of radioactivity (Plasma (by LSC), 24 h, LE rat): 0.154 μg equiv/g tissue
- Concentration of radioactivity (Plasma (by LSC), 24 h, SD rat): 0.251 μg equiv./g
- Concentration of radioactivity (Plasma (by LSC), 72 h, LE rat): 0.017 μg equiv/g tissue
- Concentration of radioactivity (Plasma (by LSC), 96 h, LE rat): BQL (BQL = Value is below the LLOQ)
- Concentration of radioactivity (Plasma (by LSC), 168 h, LE rat): BQL (BQL = Value is below the LLOQ)
- Concentration of radioactivity (Plasma (by LSC), 168 h, SD rat): BQL (BQL = Value is below the LLOQ)
- Concentration of radioactivity (Plasma (by LSC), 840 h, LE rat): BQL (BQL = Value is below the LLOQ)
- Concentration of radioactivity (Prostate Gland, 1 h, LE rat): 0.561 μg equiv/g tissue
- Concentration of radioactivity (Prostate Gland, 2 h, LE rat): 0.901 μg equiv/g tissue
- Concentration of radioactivity (Prostate Gland, 4 h, LE rat): 0.715 μg equiv/g tissue
- Concentration of radioactivity (Prostate Gland, 8 h, LE rat): 0.542 μg equiv/g tissue
- Concentration of radioactivity (Prostate Gland, 24 h, LE rat): 0.157 μg equiv/g tissue
- Concentration of radioactivity (Prostate Gland, 72 h, LE rat): 0.104 μg equiv/g tissue
- Concentration of radioactivity (Prostate Gland, 96 h, LE rat): 0.127 μg equiv/g tissue
- Concentration of radioactivity (Prostate Gland, 168 h, LE rat): BQL (BQL = Value is below the LLOQ)
- Concentration of radioactivity (Prostate Gland, 840 h, LE rat): BQL (BQL = Value is below the LLOQ)
- Concentration of radioactivity (Salivary Gland, 1 h, LE rat): 1.335 μg equiv/g tissue
- Concentration of radioactivity (Salivary Gland, 2 h, LE rat): 2.508 μg equiv/g tissue
- Concentration of radioactivity (Salivary Gland, 4 h, LE rat): 1.153 μg equiv/g tissue
- Concentration of radioactivity (Salivary Gland, 8 h, LE rat): 0.821 μg equiv/g tissue
- Concentration of radioactivity (Salivary Gland, 24 h, LE rat): 0.314 μg equiv/g tissue
- Concentration of radioactivity (Salivary Gland, 72 h, LE rat): 0.190 μg equiv/g tissue
- Concentration of radioactivity (Salivary Gland, 96 h, LE rat): 0.134 μg equiv/g tissue
- Concentration of radioactivity (Salivary Gland, 168 h, LE rat): 0.056 μg equiv/g tissue
- Concentration of radioactivity (Salivary Gland, 840 h, LE rat): BQL (BQL = Value is below the LLOQ)
- Concentration of radioactivity (Seminal Vesicles, 1 h, LE rat): 0.938 μg equiv/g tissue
- Concentration of radioactivity (Seminal Vesicles, 2 h, LE rat): 1.834 μg equiv/g tissue
- Concentration of radioactivity (Seminal Vesicles, 4 h, LE rat): 2.285 μg equiv/g tissue
- Concentration of radioactivity (Seminal Vesicles, 8 h, LE rat): 1.717 μg equiv/g tissue
- Concentration of radioactivity (Seminal Vesicles, 24 h, LE rat): 1.127 μg equiv/g tissue
- Concentration of radioactivity (Seminal Vesicles, 72 h, LE rat): 1.374 μg equiv/g tissue
- Concentration of radioactivity (Seminal Vesicles, 96 h, LE rat): 1.038 μg equiv/g tissue
- Concentration of radioactivity (Seminal Vesicles, 168 h, LE rat): 0.361 μg equiv/g tissue
- Concentration of radioactivity (Seminal Vesicles, 840 h, LE rat): BQL (BQL = Value is below the LLOQ)
- Concentration of radioactivity (Skeletal Muscle, 1 h, LE rat): 0.427 μg equiv/g tissue
- Concentration of radioactivity (Skeletal Muscle, 2 h, LE rat): 0.611 μg equiv/g tissue
- Concentration of radioactivity (Skeletal Muscle, 4 h, LE rat): 0.343 μg equiv/g tissue
- Concentration of radioactivity (Skeletal Muscle, 8 h, LE rat): 0.152 μg equiv/g tissue
- Concentration of radioactivity (Skeletal Muscle, 24 h, LE rat): 0.063 μg equiv/g tissue
- Concentration of radioactivity (Skeletal Muscle, 72 h, LE rat): 0.070 μg equiv/g tissue
- Concentration of radioactivity (Skeletal Muscle, 96 h, LE rat): 0.040 μg equiv/g tissue
- Concentration of radioactivity (Skeletal Muscle, 168 h, LE rat): BQL (BQL = Value is below the LLOQ)
- Concentration of radioactivity (Skeletal Muscle, 840 h, LE rat): BQL (BQL = Value is below the LLOQ)
- Concentration of radioactivity (Skin (non-pigmented), 1 h, LE rat): 0.979 μg equiv/g tissue
- Concentration of radioactivity (Skin (non-pigmented), 2 h, LE rat): 2.556 μg equiv/g tissue
- Concentration of radioactivity (Skin (non-pigmented), 4 h, LE rat): 1.925 μg equiv/g tissue
- Concentration of radioactivity (Skin (non-pigmented), 8 h, LE rat): 1.273 μg equiv/g tissue
- Concentration of radioactivity (Skin (non-pigmented), 24 h, LE rat): 0.312 μg equiv/g tissue
- Concentration of radioactivity (Skin (non-pigmented), 72 h, LE rat): 0.443 μg equiv/g tissue
- Concentration of radioactivity (Skin (non-pigmented), 96 h, LE rat): 0.269 μg equiv/g tissue
- Concentration of radioactivity (Skin (non-pigmented), 168 h, LE rat): 0.226 μg equiv/g tissue
- Concentration of radioactivity (Skin (non-pigmented), 840 h, LE rat): BQL (BQL = Value is below the LLOQ)
- Concentration of radioactivity (Skin (pigmented), 1 h, LE rat): 1.193 μg equiv/g tissue
- Concentration of radioactivity (Skin (pigmented), 2 h, LE rat): 2.848 μg equiv/g tissue
- Concentration of radioactivity (Skin (pigmented), 4 h, LE rat): 2.118 μg equiv/g tissue
- Concentration of radioactivity (Skin (pigmented), 8 h, LE rat): 1.233 μg equiv/g tissue
- Concentration of radioactivity (Skin (pigmented), 24 h, LE rat): 0.491 μg equiv/g tissue
- Concentration of radioactivity (Skin (pigmented), 72 h, LE rat): 0.337 μg equiv/g tissue
- Concentration of radioactivity (Skin (pigmented), 96 h, LE rat): 0.209 μg equiv/g tissue
- Concentration of radioactivity (Skin (pigmented), 168 h, LE rat): 0.090 μg equiv/g tissue
- Concentration of radioactivity (Skin (pigmented), 840 h, LE rat): BQL (BQL = Value is below the LLOQ)
- Concentration of radioactivity (Small Intestine (contents), 1 h, LE rat): 50.503 μg equiv/g tissue
- Concentration of radioactivity (Small Intestine (contents), 2 h, LE rat): 422.957 μg equiv/g tissue

Reference: patent US20170368082A1, “FORMULATIONS OF BRINCIDOFOVIR” (priority 2016, published 2017)
